Consider 84 variants from the RNAGym collection of RNA variant scans (doi:10.1073/pnas.2313332121).

First the molecules themselves.
B1: TPR 5TU (parent)
chain: GGAUCUUCUCGAUCUAACAAAAAAGACAAAUCUGCCACAAAGCUUGAGAGCAUCUUCGGAUGCAGAGGCGGCAGCCUUCGGUGGCGCGAUAGCGCCAACGUUCUCAACUAUGACACGCAAAACGCGUGCUCCGUUGAAUGGAGUUUAUCAUG

Variants at the floor of the assay are shown more often than the library holds them.

The data set covers variants of B1. Briefly: polymerase ribozyme fitness, log enrichment relative to wild type (log ratio); higher = more active; in vitro selection for triplet polymerase activity. In outline:
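Input and output libraries were sequenced on Illumina after a single in vitro selection round, run in triplicate on PCR-built, transcribed mutant libraries of each subunit of a heterodimeric triplet polymerase ribozyme. Selection annealed libraries to a biotinylated primer, the partner subunit and triplets, incubated them frozen at −7 °C, then gel-excised extended constructs for streptavidin-bead capture and RT-PCR. Genotypes with ≥10 input reads and ≥1 read per output were kept. Fitness is the logarithm, taken in base 2, of genotype enrichment divided by wild-type enrichment, using inverse-variance-weighted replicate averages.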
As to C8G A12U C14G U15G A21G C54G C57A A91G C99G, the “polymerase ribozyme fitness (log ratio)” value is not above -4.2.
With C8G A52U U77A G88C the figure was not above -4.2; with C8A A28U A91C, not above -4.2.
Consider C8G A40U C43G U44G G68C C85U A110C, for which the “polymerase ribozyme fitness (log ratio)” value is not above -4.2.
As for C8G A29G A52U A64G C87A U134A, the “polymerase ribozyme fitness (log ratio)” value is not above -4.2.
With C8A C75A U82G C85U C96A A121G G136C the figure was not above -4.2; with U7G A12G C18G C32U G94C A115U, not above -4.2.
As for C8U C54G, the “polymerase ribozyme fitness (log ratio)” value was not above -4.2.
As for C8A G11C A40G A73U C85U G92A A121U A147U, the “polymerase ribozyme fitness (log ratio)” value was not above -4.2.
With C8A C51G the figure was not above -4.2.
In the case of U9A C54A, the “polymerase ribozyme fitness (log ratio)” value was not above -4.2.
Turning to U7C C8A C32U A91U A121G U134C, the “polymerase ribozyme fitness (log ratio)” value was not above -4.2.
With C8G G11A A17U G71U G88U U127C U135G U148C A150C, the “polymerase ribozyme fitness (log ratio)” value was not above -4.2.
With U9A A23C U31G A73U C93G A106G G117A G133A A150G the figure was not above -4.2; with C8U U53A C57G G88A C95G G126U C131U U146C, not above -4.2; with U7G C8A G25A G48A G50C C75U G84U C85A C96A C123A A150U, not above -4.2.
With U7C U9G A21G U33C A49C U56C C95A U104G A142G the figure was not above -4.2; with U9A C14A C38A C125G, not above -4.2.
Turning to C8U U148A, the “polymerase ribozyme fitness (log ratio)” value is not above -4.2.
Regarding C8G A30U U55A C103G, the “polymerase ribozyme fitness (log ratio)” value is not above -4.2.
For C8G A23U A30U G42C G83C A97U, the “polymerase ribozyme fitness (log ratio)” value was not above -4.2.
With C8U C85A C99A C129G U134G A138U, the “polymerase ribozyme fitness (log ratio)” value was not above -4.2.
Regarding C8G A24C C43G U53G C93A C96A, the “polymerase ribozyme fitness (log ratio)” value is not above -4.2.
With C8G C10G A22G A26C A49U G83C C87U A91C A107G A110U G136U the figure was not above -4.2.
Turning to C8G C38U A41G C93U U102G G117C G124C U145G U146A, the “polymerase ribozyme fitness (log ratio)” value was not above -4.2.
With C8G G58C G62C A91U C93A C96G, the “polymerase ribozyme fitness (log ratio)” value was not above -4.2.
As to U7C G50U G140U, the “polymerase ribozyme fitness (log ratio)” value is not above -4.2.
With U7G A60U G83C C85A C105G A137G the figure was not above -4.2.
On to U7G G48U G92A C103A A142G U145C G152U, for which the “polymerase ribozyme fitness (log ratio)” value is not above -4.2.
With U9A A26G the figure was not above -4.2.
As for C8A A19U C54U C93A C95U U134A U144A, the “polymerase ribozyme fitness (log ratio)” value was not above -4.2.
Turning to C8G A12U C36A A52U G83A G126C A138U, the “polymerase ribozyme fitness (log ratio)” value is not above -4.2.
As for C8G G81C U82G, the “polymerase ribozyme fitness (log ratio)” value is not above -4.2.
C8G U82A C85A A91U C96U G117C: the “polymerase ribozyme fitness (log ratio)” value is not above -4.2.
With C8A G59C C93G G140U the figure was not above -4.2.
Regarding C8A A26U A37C G59A C93U, the “polymerase ribozyme fitness (log ratio)” value is not above -4.2.
With C8A G34C U56A G86A G112U A119U G128C G143A the figure was not above -4.2; with C8G C10A A29C A30C A41U A52C, not above -4.2.
In the case of U9A A23U G48C C79G C93G, the “polymerase ribozyme fitness (log ratio)” value was not above -4.2.
With C8U U44G U55A C79U G88A A110U the figure was not above -4.2; with C8U C87U, -2.59.
As to C8A A20U A40U U44G G67U G71U C93G A113G U148G, the “polymerase ribozyme fitness (log ratio)” value was not above -4.2.
For the variant C8A C18G C85G G92U C99G, the “polymerase ribozyme fitness (log ratio)” value was not above -4.2.
With C8U A41C U44A G46A A47G G50C C95U U135G G141U the figure was not above -4.2; with C8A G50A G88A, not above -4.2; with U7C C76U G84A A119U U145G, -3.32.
With C8A C10U U13C A19G G46A G50A A52U C87G A107G C123A A138G the figure was not above -4.2.
Take C8A C32G G65U A73G C96G: the “polymerase ribozyme fitness (log ratio)” value was not above -4.2.
For the variant C8G C14U A30U C75U, the “polymerase ribozyme fitness (log ratio)” value was not above -4.2.
As to C8A A23C C35G C43G U56A U78G C79A C93U U109G U146C, the “polymerase ribozyme fitness (log ratio)” value was not above -4.2.
On to U7C A41U C51U C85A A115U A142U, for which the “polymerase ribozyme fitness (log ratio)” value is not above -4.2.
As for C8U C10G C35U U45A G50A C85A G94A G117U C132G, the “polymerase ribozyme fitness (log ratio)” value is not above -4.2.
Regarding U7C G25C A37C U53A U61A G83U G133U U148C, the “polymerase ribozyme fitness (log ratio)” value was not above -4.2.
In the case of C8U A30U U44A A97G U101G A113G C132U C149G A150U, the “polymerase ribozyme fitness (log ratio)” value was not above -4.2.
With C8G A23G G84A A97G U104A U134C the figure was not above -4.2; with C8A A17C G50C C51U C57G C76U A89U C103G U144A, not above -4.2; with C8G U90G C96G A110U U145C, not above -4.2.
C8A G11A U13C U56C U78G G80A G84C: the “polymerase ribozyme fitness (log ratio)” value was not above -4.2.
On to U9A A19U A26U C27G C36G U90G G124C, for which the “polymerase ribozyme fitness (log ratio)” value is not above -4.2.
With C8G C35A C85A U90G A113C U139G the figure was not above -4.2; with C8U G88C, not above -4.2; with U7C U9A A23C C75U U77G C103A C123G, not above -4.2.
As to U7G A19C A107C A121G U134A, the “polymerase ribozyme fitness (log ratio)” value was not above -4.2.
With C8U U78G C85U C105U A113C A137C the figure was not above -4.2; with C8G C93U C95U, not above -4.2; with C8A A26G A49G G62C C85U C114U, not above -4.2.
With C8A U13A A49C U55A C85G G141U the figure was not above -4.2; with U7G A23G C38U C51G A89C C93A A115U C125U U145C, not above -4.2; with U7C G25C A37C G86A G88A C125G, not above -4.2.
With C8U U31G the figure was -3.21; with C8G C75U C93A U148G, not above -4.2; with C8A C14G A21G A28C G70A C75A G83A U146C, not above -4.2.
On to C8U C14G U31G C57U G83A, for which the “polymerase ribozyme fitness (log ratio)” value was not above -4.2.
With U7G A28U A47C G50C U53A U61G C93U C95U A150U the figure was not above -4.2; with C8A A16C C18G A49C C95U A98G A142U, not above -4.2; with C8U U55A G71A G81C C95G C125U, not above -4.2.
With C8U G59A C116U the figure was -3.27; with C8A U53A G92A A107U, not above -4.2; with C8G C10U U61G C87U U90A A97C A98U U146C, not above -4.2.
For U7G A64U C93G C95U C103G, the “polymerase ribozyme fitness (log ratio)” value is not above -4.2.
With C8G A12G G42C U82A C95U C108U G136A G143A A150U the figure was not above -4.2; with C8G C54U G59C G81U C96A U144C, not above -4.2; with C8G A28G G62A G92U, not above -4.2.
With U7G A40U A66C G81C A120G U146G the figure was not above -4.2.
